From patent publication US20250248396A1, “CHITOSAN ENCAPSULATION OF ABSOLUTE (ESSENTIAL) ROSEMARY, PEPPERMINT, AND COTTONSEED OILS” (priority 2024, published 2025)

Legend:
[1] = test system: Ae. aegypti, Culex species mosquitoes, Anopheles species mosquitoes; assay: Mosquito and midge adult activity; assay type: in vivo; settings: used at 500 to 8,000 ppm
[2] = test system: root-knot nematodes (Meloidogyne spp.); assay: Assessment of nematocidal activity in development of embodiments; assay type: in vivo
plant = assay: Plant phytotoxicity in the nematocidal assessment; settings: treatment with geraniol
multiple insects = assay: Insecticidal activity on multiple insects; assay type: in vivo

Row | Structure (SMILES) | mosquito and midge control, plant phytotoxicity, water toxicology [1] | nematocidal activity ([2]; geraniol alone or in combination with oxymatrine, neem extract, clove extract or Ostericum koreanum extract (b178 also Quillaja saponaria Molina)) | nematocidal control and plant phytotoxicity ([2]; used at 500 to 4,000 ppm) | concentration at which plant phytotoxicity was shown to occur (plant) | insecticidal activity (multiple insects; in vivo) | insecticidal control and plant phytotoxicity (multiple insects; used at 500 to 6,000 ppm)
1 | CC(C)=CCC/C(C)=C/CO [Geraniol, 3,7-dimethyl-2,6-octadien-1-ol] | superior mosquito and midge control was demonstrated without plant phytotoxicity or water toxicology | superior nematocidal activity was confirmed | superior nematocidal control was demonstrated without plant phytotoxicity | ≥ 4,500 ppm | – | –
2 | O=C1CCC[C@@H]2[C@H]3CCC[N+]4([O-])CCC[C@@H](CN12)[C@@H]34 (stereo partly drawn) [Oxymatrine] | – | – | – | – | superior insecticidal activity was confirmed | superior insecticidal control was demonstrated without plant phytotoxicity
